Several values for one entry are separate records, joined by “and”; a condition that tells them apart may be missing. Equal values may be shown once. This list was built around the results that the source calls inconclusive (neither active nor inactive); the mix of calls is not that of the screen. Where the call is inconclusive, the potency comes from a doubtful curve fit. Activity calls are given as the source filed them. Calls follow the shape of the dose curve; as a rule, active = well fitted curve in the direction sought with a large enough effect; inconclusive = small, poorly fitted or top-dose-only effect, or another doubt; inactive = no such curve, though single readings can be large; an effect the other way counts as inactive or inconclusive.
Experiments:
[1] = Viability qHTS for spleen associated tyrosine kinase inhibitor (SYKi) naive MV4-11 cells (AID 1963823); settings: MV4-11 AML viability, CellTiter-Glo luminescence, 72 h; viability (% of control): at 45 µM (top of the series); also: nearly all actives have a fitted effect of over 40% in size
Summary of the method: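 SYK inhibitor-naive MV4-11 cells, 500 per well, exposed to compounds for 72 hr at 37 C, 5% CO2. Viability read as CellTiter-Glo luminescence after 10 min at room temperature.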

[2] = Cellular viability qHTS for adrenocortical cancer (ACC) cell line SW-13 (AID 1963989); settings: SW-13 ACC cells viability, CellTiter-Glo, 48 h; activity (max response): hits give low values; also: nearly all actives have a fitted effect of over 65% in size;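 as to activity (max response): cells grown in serum-free medium with ITS supplement; % is scaled to controls: 0 for no effect and ±100 for the full control effect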
Summary of the method: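 Luminescent ATP read-out (CellTiter-Glo, 20 min at room temperature) measured metabolically competent SW-13 cells after 48 h compound treatment. Final concentrations spanned up to 46 uM; bortezomib served as positive control.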

[3] = Cellular viability qHTS for adrenocortical cancer (ACC) cell line NCI-H295R (AID 1963990); settings: CellTiter-Glo ATP luminescence, 48 h; activity change, negative = viability loss: at 46.1 µM (top of the series); also: nearly all actives have a fitted effect of over 60% in size
Summary of the method: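 IC50 and maximal efficacy derive from four-parameter logistic modelling of titration curves, with reads scaled between DMSO-only wells (0%) and doxorubicin hydrochloride (100% inhibition). Compounds spanned up to 46 uM over 48 h.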
Potency is read from the fitted curve at half-maximal effect; tags tell the direction and shape of the fitted curve.

| Compound | Potency [1] | Potency [2] | activity (max response) [2] | Potency [3] |
| --- | --- | --- | --- | --- |
| NC(=O)NS(=O)(=O)c1ccc(Cl)cc1 | inactive | inconclusive: 25.9 µM [cytotoxic, single point] |  |  |
| Cc1ccc(-c2nn(C(C)(C)CNC(=O)c3ccncc3)c3ncnc(N)c23)cc1 | inconclusive: 7.42 µM [cytotoxic, full curve] | active: 8.91 µM |  |  |
| CN(C)C[C@@H]1CCn2cc(c3ccccc32)C2=C(C(=O)NC2=O)c2cn(c3ccccc23)CCO1 | active: 0.186 µM | active: 28.2 µM |  |  |
| CC(=O)O[C@]1(C(C)=O)CC[C@H]2[C@@H]3C=C(Cl)C4=CC(=O)CC[C@]4(C)[C@H]3CC[C@@]21C | inconclusive: 15 µM [cytotoxic, partial curve] |  | inactive: -0.809% |  |
| Oc1ccc(Cl)cc1Sc1cc(Cl)ccc1O | inconclusive: 15 µM [cytotoxic, partial curve] | active: 3.26 µM |  |  |
| COC(=O)C1=C(C)NC(C)=C(C(=O)O[C@@H]2CCCN(Cc3ccccc3)C2)[C@@H]1c1cccc([N+](=O)[O-])c1 | active: 21.1 µM and active: 13 µM | inconclusive: 16.4 µM [cytotoxic, single point] |  |  |
| N/C(=N\N=C\c1ccc(Cl)cc1)N/N=C/c1ccc(Cl)cc1 | inconclusive: 0.0106 µM [cytotoxic, full curve, poor fit] |  | inactive: -4.76% |  |
| COCCOC(=O)C1=C(C)NC(C)=C(C(=O)OC(C)C)C1c1cccc([N+](=O)[O-])c1 (configuration not stated) | inconclusive: 33.5 µM [cytotoxic, single point] |  | inactive: 7.46% |  |
| Cc1cc(C(C)(C)C)c(O)c(C(C)(C)C)c1 | inactive | inconclusive: 20.6 µM [cytotoxic, single point] |  |  |
| O=C(O)c1ccccc1Nc1cccc(C(F)(F)F)c1 | inconclusive: 15 µM [cytotoxic, single point] | inconclusive: 20.6 µM [cytotoxic, single point] |  |  |
| NS(=O)(=O)c1ccc(NC(=S)N2CCN(C/C=C/c3ccccc3)CC2)cc1 | inconclusive: 11.8 µM [cytotoxic, partial curve] | inconclusive: 28.2 µM [cytotoxic, partial curve] |  |  |
| CC(/C=C/C(=O)NO)=C\[C@@H](C)C(=O)c1ccc(N(C)C)cc1 | active: 326 nM and active: 296 nM | active: 6.31 µM |  |  |
| C=C1[C@H](OC(=O)/C=C(\C)CC)C[C@@H](C(C)C)[C@@H]2[C@H]([C@@H](C)OC(C)=O)C(=O)C[C@@H]12 | active: 14.8 µM |  | inactive: 6.72% |  |
| Nc1nc(-c2nn(Cc3ccccc3F)c3ncccc23)ncc1C1CC1 | inconclusive: 1.66 µM [cytotoxic, full curve] | inconclusive: 1.41 µM [cytotoxic, full curve] |  |  |
| O=c1cc[nH]c(=S)[nH]1 | inactive | inconclusive: 29.1 µM [cytotoxic, single point] |  | inconclusive: 25.9 µM [cytotoxic, single point] |
| C[C@@H]1CCC[C@H](C)N1 | inactive |  | inactive: 4.32% |  |
| C/C(=C(\CCO)SS/C(CCO)=C(\C)N(C=O)Cc1cnc(C)nc1N)N(C=O)Cc1cnc(C)nc1N | inconclusive: 0.0237 µM [rising, full curve] |  | inactive: 7.36% |  |
| CC(C)[N+](C)(C)CC(O)COc1cccc2ccccc12 (configuration not stated) | inactive | inconclusive: 18.4 µM [cytotoxic, single point] |  |  |
| C=CC(=O)N1CCC[C@@H](n2nc(-c3ccc(Oc4ccccc4)cc3)c3c(N)ncnc32)C1 | active: 1.64 µM and active: 662 nM |  | inactive: 5.79% |  |
| CN(C)CC[C@@H](c1ccc(Br)cc1)c1ccccn1 | inactive |  | inactive: 2.25% |  |
| CCS(=O)(=O)CCn1c([N+](=O)[O-])cnc1C | inactive | inconclusive: 20.6 µM [cytotoxic, single point] |  |  |
| COc1cc2c(cc1O)CCN[C@]21CS[C@@H]2c3c(OC(C)=O)c(C)c4c(c3[C@H](COC1=O)N1[C@@H]2[C@H]2c3c(cc(C)c(OC)c3O)C[C@@H]([C@@H]1O)N2C)OCO4 | active: 0.0014 µM | active: 0.0038 µM |  |  |
| Oc1ccc(Cl)cc1Cc1cc(Cl)ccc1O | inconclusive: 10.6 µM [cytotoxic, partial curve] | active: 5.17 µM |  |  |

Source: PubChem BioAssay (NCATS)
